Data from PubChem BioAssay (Tox21).
“And” between values parts separate entries of the source, which are not always exact repeats. Identical values can stand only once. The inconclusive results got no clear call from the source; some entries with a clear call stand among them for comparison. A potency beside an inconclusive call is a rough fit, not a confirmed value. The source made the active and inactive calls. Calls follow the shape of the dose curve; as a rule, active = well fitted cell-killing curve with a large enough effect in the repeat runs; inconclusive = weak or mixed curves, or effect the other way; inactive = no such curve, though single readings can be large or run the other way.

Test: qHTS assay to identify small molecule antagonists of the thyroid receptor (TR) signaling pathway - cell viability counter screen (AID 743064); also: nearly all actives have a fitted effect of over 50% in size
Conditions: GH3.TRE-Luc viability, CellTiter-Fluor, 24 h; activity change, negative = cytotoxic: at 70.3 µM (top of the series) unless noted
Source text: National Center for Advancing Translational Sciences [NCATS]
NIH Chemical Genomics Center [NCGC]
U.S. Environmental Protection Agency [EPA]
National Institutes of Environmental Health Sciences [NIEHS]
National Toxicology Program [NTP]
U.S. Food and Drug Administration [FDA]
Thyroid receptor (TR), a nuclear hormone receptor, plays an important role in development, proliferation, differentiation, metabolism, brain function, and cardiovascular system. […] To profile the Tox21 10K compound library in TR signaling, a cell-based GH3-TRE-Luc assay (GH3.TRE-Luc cell line, developed by the laboratory of Dr. Albertinka J. Murk, Wageningen University) was used to measure the inhibition of TR. GH3 (rat pituitary tumor) cells stably expressing a TR activity sensor consisting of two TR response elements and a luciferase reporter gene. The cytotoxicity of the Tox21 compound library against the GH3.TRE-Luc cell line was tested in parallel by measuring the cell viability using CellTiter-Fluor assay (Promega, Madison, WI) in the same wells.
Tox21 Assay Protocol Summary:
GH3.TRE-Luc cells were dispensed at 1500 cells/4 uL/well into 1536-well white solid bottom plates using a Multidrop Combi dispenser (Thermo Fisher Scientific Inc., Waltham, MA). After the assay plates were incubated at 37 C for 4 hours, 23 nL of library compound or DMSO controls was transferred to the assay plates by a pintool station (Kalypsys, San Diego, CA), followed by addition of 1 ul of T3 (1 nM, final concentration in the wells) to stimulate TR transactivation. The assay plates were incubated at 37 C for 23.5 h, and then 1 uL of CellTiter-Fluor reagent (Promega, Madision, WI) of measuring cytotoxicity was added to each well using a Bioraptr Flying Reagent Dispenser (FRD) workstation (Beckman Coulter, Indianapolis, IN, USA). The plates were incubated at 37C and 5% CO2 for additional 30 min, and fluorescence intensity was measured by a ViewLux plate reader (PerkinElmer, Shelton, CT).
% is scaled to controls: 0 for no effect and ±100 for the full control effect; potency is read from the fitted curve at half-maximal effect; tags tell the direction and shape of the fitted curve.

For C1CCCNCCC1, which Potency is on record?
Its Potency is inconclusive: 0.544 µM [rising, single point].

Which activity change, negative = cytotoxic does the source give for O=C(O)Cc1sc(-c2ccccc2)nc1-c1ccc(Cl)cc1 here?
Its activity change, negative = cytotoxic is inconclusive: -32.2% [cytotoxic].

Which Potency does the source give for O=C(Cl)c1cccc([N+](=O)[O-])c1 here?
The Potency was inconclusive: 66.7 µM [rising, single point].

For Cc1cccc(Nc2ccccc2C(=O)O)c1C, which Potency is on record?
Its Potency is inconclusive: 3.35 µM [rising, single point].

And the activity change, negative = cytotoxic?
The activity change, negative = cytotoxic was inconclusive: -30.7% [cytotoxic].

For CCCCCCCCCCCc1ccccc1, which Potency is on record?
Its Potency is “inactive”.

For OC[C@H](Cc1cccc(O)c1)[C@H](CO)Cc1cccc(O)c1, which Potency is on record?
The Potency was “inactive”.

Which Potency does the source give for CCCCCCCCCCCCCCCCCCCl here?
The Potency was inconclusive: 0.298 µM [rising, single point].

With CC(C)=CCCC(C)CCOC=O (stereo not given) as the compound, how does the Potency read?
Its Potency is “inactive”.

With CC1=C(C)C(=O)C(C(CCCCCC(=O)O)c2ccccc2)=C(C)C1=O (stereo not given) as the compound, how does the Potency read?
The Potency was inconclusive: 13.3 µM [cytotoxic, full curve].

For CCCC(=O)OCC, which Potency is on record?
Its Potency is inconclusive: 17.2 µM [rising, full curve, poor fit].

With CCCSc1ccc2nc(NC(=O)OC)[nH]c2c1 as the compound, how does the Potency read?
Its Potency is active: 452 nM and inconclusive: 1.54 µM [cytotoxic, full curve].

For Nc1ccccc1S(=O)(=O)O, which Potency is on record?
The Potency was inconclusive: 0.238 µM [rising, single point].

Which Potency does the source give for COc1cc2c(Nc3ccc(Br)cc3F)ncnc2cc1OCC1CCN(C)CC1 here?
The Potency was active: 4.73 µM.

With NC(N)=N/N=C/c1c(Cl)cccc1Cl as the compound, how does the Potency read?
Its Potency is active: 23.7 µM.

With Cl/C(=C\n1cncn1)c1ccc(Cl)cc1Cl as the compound, how does the Potency read?
The Potency was “inactive”.

With O=C1CCCCCO1 as the compound, how does the Potency read?
Its Potency is inconclusive: 69.1 µM [rising, single point].

For CCCC(C)CO (stereo not given), which Potency is on record?
Its Potency is inconclusive: 68.6 µM [rising, single point].

For C=CC(O)CCCCC (stereo not given), which Potency is on record?
The Potency was “inactive”.

For OCc1ccc(Cl)cc1Cl, which Potency is on record?
The Potency was inconclusive: 12.2 µM [rising, full curve].

Which Potency does the source give for CC(C)(O)c1ccc(C(C)(C)O)cc1 here?
Its Potency is inconclusive: 30.2 µM [rising, full curve].

With O=Cc1ccc(Cl)cc1 as the compound, how does the Potency read?
The Potency was inconclusive: 24.2 µM [rising, partial curve, poor fit].

For c1ccc2cnncc2c1, which Potency is on record?
Its Potency is inconclusive: 27.4 µM [rising, single point].

For CC(C)(Oc1ccc(C2CC2(Cl)Cl)cc1)C(=O)O (stereo not given), which Potency is on record?
The Potency was “inactive”.

With C=C(C)C(=O)OCCCC as the compound, how does the Potency read?
The Potency was “inactive”.

Which Potency does the source give for CC[C@H](NC(C)C)[C@H](O)c1ccc(O)c2[nH]c(=O)ccc12 here?
The Potency was inconclusive: 3.76 µM [rising, full curve].

With COc1cc(NC(=O)CC(C)=O)c(OC)cc1Cl as the compound, how does the Potency read?
Its Potency is inconclusive: 68.6 µM [cytotoxic, single point].

Which Potency does the source give for Cc1ccc(C(C)C)cc1 here?
The Potency was “inactive”.

For CCC(C)(C)C1CCC(OC)CC1 (stereo not given), which Potency is on record?
Its Potency is “inactive”.

Which Potency does the source give for O=C(NN1CCCC1)NS(=O)(=O)c1ccc(Cl)cc1 here?
Its Potency is “inactive”.

For CCCCCC(N)=O, which Potency is on record?
Its Potency is inconclusive: 1.19 µM [rising, single point].

For C=CCOC(=O)CC(C)C, which Potency is on record?
The Potency was “inactive”.

With CN(C)CCC(c1ccccc1)c1ccccn1 (stereo not given) as the compound, how does the Potency read?
The Potency was inconclusive: 13.7 µM [rising, single point].

For C=CCSSCCC, which Potency is on record?
Its Potency is “inactive”.

For CC/C=C\CCOC(=O)CCCCC, which Potency is on record?
The Potency was “inactive”.

With CCCCNc1ccc(C(=O)OCCN(CC)CC)cc1 as the compound, how does the Potency read?
The Potency was inconclusive: 26.6 µM [cytotoxic, partial curve].

For CCN(CC)CCOC(=O)C1(c2ccccc2)CCCC1, which Potency is on record?
The Potency was inconclusive: 29.8 µM [cytotoxic, single point].

With COC(=O)N[C@H](C(=O)N[C@@H](Cc1ccccc1)[C@@H](O)CN(Cc1ccc(-c2ccccn2)cc1)NC(=O)[C@@H](NC(=O)OC)C(C)(C)C)C(C)(C)C as the compound, how does the Potency read?
Its Potency is “inactive”.

Which Potency does the source give for CC(=O)O[C@H]1C[C@@H]2CC[C@@H]3[C@H](CC[C@@]4(C)[C@H]3C[C@H]([N+]3(C)CCCCC3)[C@@H]4OC(C)=O)[C@@]2(C)C[C@@H]1N1CCCCC1 here?
The Potency was inconclusive: 29.8 µM [rising, single point].

Which Potency does the source give for CSc1cnccn1 here?
The Potency was “inactive”.
